From the supplement of paper PMC3334620
The full ranking holds about 33,000 sequences; the median of “E-score (-0.5 to 0.5)” is about -0.041, and the highest 2% start at about 0.37. Some of the results follow.

biological target: T1, Ecm22 (UniProt Q05958); experiment: PBM E-score (8-mer binding enrichment) (E-score (-0.5 to 0.5)); higher = stronger / more preferred TF binding; most listed sequences are background and not binding sites; settings: protein concentration: 200 nM; construct: GST-full length
T1 sequence: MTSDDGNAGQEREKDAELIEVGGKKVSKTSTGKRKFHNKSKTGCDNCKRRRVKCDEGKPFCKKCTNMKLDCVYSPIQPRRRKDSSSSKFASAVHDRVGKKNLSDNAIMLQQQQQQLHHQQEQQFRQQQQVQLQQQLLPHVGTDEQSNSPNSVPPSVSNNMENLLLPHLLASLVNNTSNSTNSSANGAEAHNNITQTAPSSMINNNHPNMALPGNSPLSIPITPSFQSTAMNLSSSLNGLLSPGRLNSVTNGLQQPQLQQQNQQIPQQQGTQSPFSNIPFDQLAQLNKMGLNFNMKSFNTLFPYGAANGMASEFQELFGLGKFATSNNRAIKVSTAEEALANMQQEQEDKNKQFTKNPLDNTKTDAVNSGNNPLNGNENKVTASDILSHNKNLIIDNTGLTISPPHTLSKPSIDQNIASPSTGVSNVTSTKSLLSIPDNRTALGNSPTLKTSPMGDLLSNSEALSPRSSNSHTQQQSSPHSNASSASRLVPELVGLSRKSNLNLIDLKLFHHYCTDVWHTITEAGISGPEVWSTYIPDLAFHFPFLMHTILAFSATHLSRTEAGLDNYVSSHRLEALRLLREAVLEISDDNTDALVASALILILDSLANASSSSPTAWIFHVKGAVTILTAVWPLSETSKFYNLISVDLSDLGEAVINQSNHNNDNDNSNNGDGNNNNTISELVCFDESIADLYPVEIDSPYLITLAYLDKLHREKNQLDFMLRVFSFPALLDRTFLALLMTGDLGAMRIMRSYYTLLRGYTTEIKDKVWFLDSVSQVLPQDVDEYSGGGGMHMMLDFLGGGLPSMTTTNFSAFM
In short: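 Full-length yeast transcription factors or their DNA-binding domains, GST-tagged and expressed with PURExpress, were applied at about 100-200 nM to universal all-10-mer Agilent arrays. These arrays had been made double-stranded by primer extension on fresh or once-stripped slides. Detection used fluorescent anti-GST, normalisation used masliner, and E-scores for ungapped eight-base words pooled with reverse complements came from the Universal PBM Analysis Suite.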

| Sequence | PBM E-score |
| --- | --- |
| CAAGTCCA | -0.304 |
| AACGCAAG | 0.0162 |
| GCTGCTTA | 0.0355 |
| GACTAACC | -0.167 |
| ACATAGTG | 0.0572 |
| CCAATTGG | 0.159 |
| CCGTTTTA | 0.185 |
| CGCTCGAA | 0.0161 |
| GACAAGTA | 0.0842 |
| ACAAACCG | 0.0719 |
| AGAGCTTC | -0.177 |
| AAACCACA | -0.0246 |
| AGGTCCTG | -0.0668 |
| ACGAAACG | 0.411 |
| GGTGGATA | -0.0465 |
| CACTCAAC | 0.0404 |
| TAGATAAA | 0.057 |
| CACCGGGG | -0.166 |
| GATACTGC | -0.00778 |
| ATCTGAAA | -0.034 |
| AGACGTCC | -0.23 |
| CCCTGTAG | -0.28 |

| Sequence | PBM E-score |
| --- | --- |
| CGGTGGGA | -0.00705 |
| CCCACAAC | -0.123 |
| ATAGGCCA | 0.107 |
| CACTCGCA | 0.133 |
| AAAACTCT | -0.179 |
| ATTCACTG | -0.249 |
| AGCGTGCA | 0.0259 |
| CTAATGGC | -0.207 |
| GAATCGGC | 0.0339 |
| GATGGACA | -0.124 |
| CACCCATA | -0.058 |
| CAAAGACC | -0.0983 |
| GTTCAAAA | 0.0321 |
| CCAGGTTA | -0.0408 |
| CTATGATC | -0.0914 |
| ATAACTAG | -0.171 |
| GACGCACA | -0.0996 |
| ACCCTGAG | -0.198 |
| ACCGGCTC | -0.0882 |
| ACACCTCA | -0.201 |
| ACTCTCGG | 0.0866 |
| TCCGAAAA | 0.00572 |

| Sequence | PBM E-score |
| --- | --- |
| ACGTGACC | -0.00344 |
| GTGAGAGA | -0.3 |
| CATCTGAG | -0.169 |
| AGGGGTGC | -0.19 |
| ACGCAGCA | 0.033 |
| GATAAGCA | 0.0947 |
| AGGCACAC | -0.208 |
| CCATTAAA | -0.0951 |
| AGAAGATA | -0.0582 |
| CGTTTATA | 0.426 |
| CTCCGCAA | -0.0477 |
| CACTGGCC | -0.219 |
| CCTCGAGG | -0.114 |
| CTTCCGGC | -0.0914 |
| CGATACTA | 0.216 |
| ATGATTGC | 0.095 |
| AGCTTCGG | -0.00259 |
| TGATGGCA | -0.12 |
| CACTATCG | 0.0969 |
| CCGCATCG | 0.0485 |
| TACGAGAA | 0.462 |
| TCGCGAAA | 0.306 |

| Sequence | PBM E-score |
| --- | --- |
| GCTTTTAA | -0.0344 |
| CTAAAATC | -0.174 |
| TGAAATAA | -0.0508 |
| CGCGTGAC | 0.0429 |
| AACAGGAG | -0.19 |
| GTGGTACA | 0.0101 |
| CAACGGGA | 0.155 |
| ACCGCTTG | 0.00183 |
| AGATTTCC | -0.0478 |
| AAGGCAAA | -0.146 |
| ACGTTCTA | 0.0664 |
| CGACATCC | 0.0868 |
| GCCGACTA | 0.123 |
| CTGGTCTA | -0.18 |
| AGTAGAAT | -0.0978 |
| GCCGGAGA | 0.107 |
| CTGCGCTA | -0.137 |
| CCATGACG | -0.00209 |
| GCCTCCAA | -0.263 |
| AGACGAGC | 0.211 |
